# From PubChem BioAssay AID894 (National Center for Advancing Translational Sciences (NCATS), 2007)
# The campaign covered roughly 150,000 compounds. About 6,500 (4.3%) were called active. The shares of active, inactive and inconclusive entries below differ from those in the screen. Calls follow the shape of the dose curve; as a rule, active = well fitted inhibition curve with a large enough effect (not every such curve was filed as active); inconclusive = small, poorly fitted or top-dose-only effect, or another doubt; inactive = no such curve, though single readings can be large or run the other way. No potency is given beside an inconclusive call; the fits are too rough.
# Target: 15-hydroxyprostaglandin dehydrogenase [NAD(+)] (Homo sapiens) (UniProt P15428)
# Test: qHTS Assay for Inhibitors of HPGD (15-Hydroxyprostaglandin Dehydrogenase)
# Conditions: purified HPGD, NADH fluorescence kinetic, PGE2 substrate; activity change, negative = inhibition: hits give low values
# In short: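 20 nM HPGD preincubated 15 min at room temperature with compound in 50 mM Tris-HCl pH 8, 0.01% Tween 20. Started with 1 mM NAD+ and 30 uM prostaglandin E2; NADH fluorescence (360/450 nm) read 5 times over 30-s intervals, last minus first.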
# % is scaled to controls: 0 for no effect and ±100 for the full control effect; potency is read from the fitted curve at half-maximal effect; tags tell the direction and shape of the fitted curve.
# UniProt P15428, sequence (P15428 whole entry, looked up): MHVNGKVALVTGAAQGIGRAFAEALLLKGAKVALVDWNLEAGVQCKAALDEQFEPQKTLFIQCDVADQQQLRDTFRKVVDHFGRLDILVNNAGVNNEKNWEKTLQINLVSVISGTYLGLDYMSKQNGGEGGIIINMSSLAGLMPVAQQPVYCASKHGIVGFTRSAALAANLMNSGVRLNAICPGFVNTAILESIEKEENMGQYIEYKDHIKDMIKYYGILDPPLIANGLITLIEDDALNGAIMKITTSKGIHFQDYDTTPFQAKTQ
Compound,Potency,"activity change, negative = inhibition"
COc1ccc(-c2cc(C(=O)N3CCN(C(c4ccccc4)c4ccccc4)CC3)no2)cc1OC,"inconclusive [inhibitor, partial curve]",–
COc1ccc(C2CC(c3ccc4ccccc4c3OC(C)=O)=NN2C(=O)/C=C/c2ccccc2)cc1 (stereo not given),"inconclusive [inhibitor, partial curve]",–
Cc1ccc(C(=O)N/N=C/c2sc(=O)n(Cc3cccc(C(=O)O)c3)c2Cl)cc1,active: 28.2 µM,–
Cc1[nH]c2ccccc2c1C1(O)C(=O)N(Cc2ccc3c(c2)OCO3)c2ccccc21 (stereo not given),–,inactive: -18.7%
CC(C)COc1ccc(/C(=N/O)c2ccccc2)cc1,"inconclusive [inhibitor, partial curve]",–
CCOc1ccc(Nc2nc3c(c(=O)[nH]2)CCCC3)cc1,–,inactive: -12%
COC(=O)NC(CCc1ccccc1)C(C(=O)OC)C(=O)OC (stereo not given),–,inactive: -8.33%
Cc1cc(=O)oc2cc(OCC(=O)N/N=C/c3cc([N+](=O)[O-])ccc3O)ccc12,–,inactive: -24.7%
O=C1CC(SC(=Nc2ccccc2)Nc2ccccc2)C(=O)N1c1cccc(Cl)c1 (stereo not given),–,inactive: -13.6%
Cc1ccccc1OCCCC(=O)NCc1ccco1,active: 25.1 µM,–
CC1CCC2(OC1)OC1CC3C4CC[C@@H]5CC(O)CC[C@@]5(C)C4CC(=O)[C@]3(C)C1C2C (stereo not given in full),–,inactive: -12.4%
Cn1cnnc1SCC(=O)N1N=C2/C(=C/c3ccco3)CCCC2C1c1ccco1 (stereo not given),"inconclusive [inhibitor, partial curve]",–
C=C(Nc1ccc(OC)cc1)C(=O)OC,–,inactive: -6.61%
COc1ccc(C(C)=O)cc1COC(=O)CNC(=O)c1ccc(Cl)cc1,active: 15.8 µM,–
COc1ccc(N2CCC(CNS(=O)(=O)c3cccc(C(F)(F)F)c3)C2)cc1 (stereo not given),–,inactive: -19.1%
[O-]/C(=C(\C(=S)Nc1cccc2ccccc12)[n+]1ccccc1)c1ccc2c(c1)OCCO2,"inconclusive [inhibitor, partial curve]",–
COc1ccccc1NC(=O)COC(=O)c1ccc2c(c1)nc(C)n2-c1ccccc1,"inconclusive [inhibitor, partial curve]",–
CCN(CC)C(=O)c1cc2cc([N+](=O)[O-])ccc2s1,active: 28.2 µM,–
CCc1ccc(NC(=O)CNC(=O)c2cn(-c3ccccc3OC)c(=O)c3ccccc23)cc1,"inconclusive [inhibitor, partial curve]",–
Cc1nn(CCO)c2nc(-c3cccs3)cc(C(F)(F)F)c12,"inconclusive [inhibitor, partial curve]",–
Cc1cc(NC(=O)CCSc2ccccc2)ccc1Br,–,inactive: -5.05%
CCOc1ccc(N2C(=O)CC(N(C)Cc3ccccc3)C2=O)cc1 (stereo not given),–,inactive: -10.9%
O=C(O)CSc1ncnc2sc3c(c12)CCC3,"inconclusive [inhibitor, partial curve]",–
COc1cccc(-c2nn(C)c3sc(C(=O)N4CCOCC4)cc23)c1,"inconclusive [inhibitor, partial curve]",–
CCSc1nc(N)c(C#N)c(-c2ccccc2Cl)c1C#N,"inconclusive [inhibitor, partial curve]",–

Compound,Potency,"activity change, negative = inhibition"
COc1ccc(N/C(=C(/C(Cl)=C(Cl)Cl)[N+](=O)[O-])n2nnc3ccccc32)cc1OC,"inconclusive [inhibitor, partial curve]",–
CC(=O)Nc1ccc(NC(=O)COC(=O)Cc2cccs2)cc1,–,inactive: -8.32%
O=c1cc(-c2ccccc2O)oc2cc(O)ccc12,"inconclusive [inhibitor, partial curve]",–
COC(=O)c1ccc(N2C(=O)CC(N3CCOCC3)C2=O)cc1 (stereo not given),–,inactive: -7.01%
COc1cc(/C=N/NC(=O)/C(=C/c2ccccc2)CCO)ccc1O,–,inactive: -3.11%
Cn1c(=O)c(Sc2ccc(Cl)cc2)c(O)c2ccccc21,–,inactive: -12.7%
COc1ccccc1NC(=S)NCC1CCCCC1,"inconclusive [inhibitor, single point]",–
COC(=O)c1ccc(NC(=S)NCCC2=CCCCC2)cc1,–,inactive: -15.7%
O=C(NCc1ccccc1)c1cccc(Br)n1,active: 31.6 µM,–
COCCNc1nc(C)nc2c1nc(-c1ccccc1)n2CC1CCN(C)CC1,"inconclusive [inhibitor, partial curve]",–
N#CC(c1nc2ccccc2nc1N1CCCC1)S(=O)(=O)c1cccs1 (stereo not given),"inconclusive [inhibitor, partial curve]",–
CC(C)C(=O)Nc1nnc(CSCc2ccccc2F)s1,–,inactive: -12.2%
CCC1CCc2c([nH]c3ccccc3c2=O)O1 (stereo not given),"inconclusive [inhibitor, single point]",–
O=C(NCCCc1ccccc1)c1ccc(Br)o1,active: 25.1 µM,–
Cc1ccc(C2CC2C(=O)NNC(=S)Nc2ccc(Cl)cc2)cc1 (stereo not given),"inconclusive [inhibitor, partial curve]",–
COc1ccc(-c2cc(C3CC3)nc3sc(C#N)c(N)c23)cc1,"inconclusive [inhibitor, partial curve]",–
CCNc1ncc2nc(-c3ccccc3)c(=O)n(-c3ccc(OC)cc3)c2n1,"inconclusive [inhibitor, partial curve, poor fit]",–
O=C(c1ccccc1Cl)N1CCNCC1,–,inactive: -9.06%
CCOC(=O)C(C)Sc1nc2c([nH]c3ccccc32)c(=O)n1C (stereo not given),–,inactive: 3.26%
CCCNC(=O)c1ccc(CNc2c(N3CCC(C(=O)OCC)CC3)c(=O)c2=O)cc1,active: 4.47 µM,–
Cc1cccc(/C=N/n2c(-c3cc(-c4ccccc4)n[nH]3)n[nH]c2=S)c1,active: 5.01 µM,–
CC1CC(=O)C2=C(C1)Nc1ccccc1SC2c1ccc(F)cc1 (stereo not given),–,inactive: -6.86%
CCOC(=O)/C(=N\Nc1ccc(Cl)cc1)c1csc(Nc2ccccc2)n1,"inconclusive [inhibitor, partial curve]",–
c1ccc(-c2nnc(CSc3nnc(-c4cccs4)o3)o2)cc1,active: 15.8 µM,–
COCCn1c(=O)cnc2cnc(OCc3ccccc3)nc21,–,inactive: -9.92%

Compound,Potency,"activity change, negative = inhibition"
COc1ccc(-c2cn3cccnc3n2)cc1NC(=O)c1ccc(Br)o1,"inconclusive [inhibitor, single point]",–
Cc1ccc(-c2nnc(SCC(=O)N3CCOCC3)nc2-c2ccc(C)cc2)cc1,active: 17.8 µM,–
Cc1nn(C)cc1/C=N\NC(=O)c1ccc2c(c1)c(C)c(C)n2Cc1ccccc1,"inconclusive [inhibitor, partial curve]",–
CCOC(=O)C1CCCN(S(=O)(=O)c2ccc(C)cc2)C1 (stereo not given),–,inactive: -12.2%
COCCCNC(=O)CC(C)c1ccccc1 (stereo not given),active: 15.8 µM,–
CCn1c(-c2cc(C3CC3)nc3ccccc23)n[nH]c1=S,active: 12.6 µM,–
COc1ccc(N(C(=O)c2ccco2)S(=O)(=O)c2cccc([N+](=O)[O-])c2)cc1,"inconclusive [inhibitor, partial curve]",–
COc1cccc(C(=O)NC2CCN(C(=O)N3c4ccccc4Sc4ccccc43)CC2)c1,–,inactive: -17.5%
COc1ccc(CCNc2oc(-c3ccccc3OC)nc2C#N)cc1OC,"inconclusive [inhibitor, partial curve]",–
Clc1ccc2c(NCc3ccccn3)ncnc2c1,"inconclusive [inhibitor, partial curve]",–
COC(=O)c1c(C)[nH]c(C(=O)CSc2ccc(Cl)cc2)c1C,–,inactive: -7.73%
CCc1ccc2[nH]c(=O)c(C(c3nnnn3CCOC)N3CCN(c4ccccc4F)CC3)cc2c1 (stereo not given),"inconclusive [inhibitor, partial curve, poor fit]",–
CC1(C)Cc2c(C#N)c(SCCOc3ccccc3)nc(N3CCOCC3)c2CO1,"inconclusive [inhibitor, partial curve]",–
COc1ccc(-c2cc(-c3cccs3)c(C#N)c(SCC(=O)NCc3ccccc3)n2)cc1,"inconclusive [inhibitor, partial curve]",–
CCOC(=O)CNC(=O)c1sc2ncnc(N3CCc4ccccc4C3)c2c1C,"inconclusive [inhibitor, partial curve]",–
CNC(=O)c1ccc(Oc2ccc(C(=O)NC)cc2)cc1,active: 2.51 µM,–
COc1ccc(C(=O)NCCn2ccc3ccccc32)cc1OC,–,inactive: -6.36%
FC(F)(F)c1nc2nncn2c2c1CCCCC2,"inconclusive [inhibitor, partial curve]",–
CCOc1ccc(-n2nnnc2SCC(=O)N2CCOCC2)cc1,–,inactive: -5.9%
C=CCSc1cc(C)nc2c(-c3ccc(Cl)cc3)c(C)nn12,"inconclusive [inhibitor, partial curve, poor fit]",–
O=C(Nc1ccc(F)cc1)c1ccccc1CC[N+](=O)[O-],–,inactive: -9.67%
O=c1c2ccccc2nc(N/N=C/c2ccc(O)cc2)n1O,active: 12.6 µM,–
N#Cc1cccc(N=Cc2c(O)ccc3ccccc23)c1,"inconclusive [inhibitor, single point]",–
COc1ccc(C(C)C)cc1S(=O)(=O)Nc1ccccn1,"inconclusive [inhibitor, partial curve]",–
COc1cccc(N2CCN(C3CC(=O)N(c4ccc(F)c(Cl)c4)C3=O)CC2)c1 (stereo not given),–,inactive: -27.5%
